The results in this text go back to PubChem BioAssay (EPA / NIEHS).

Each structure is given as a SMILES string. For some assays here: This list holds what a sample rich in hits left over. Inconclusive results are not listed. Only a part is listed here, and it is no random draw. A structure can be active in one record and inactive in another. The source made the active and inactive calls. Rule for the calls, unless noted: active = hit-call score of the fitted dose curve at least 0.9, where 1 is the maximum; inconclusive = response in the unintended direction; inactive = score below 0.9.

The target of experiment [1] is human RAR-related Orphan Receptor beta (RORb), RORB (gene 6096) (UniProt Q92753). Nature of the experiment: ATG_RORb_TRANS: Attagene TRANS-FACTORIAL HepG2 Assay for human RAR-related Orphan Receptor beta (RORb) (AID 2283010). A digest of the protocol:
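Read-out is reporter mRNA induction, quantified by RT-PCR with fluorescent capillary electrophoresis, 24 h post-dose in transiently transfected HepG2 expressing exogenous NR-Gal4 chimera. Activity fitted upward versus DMSO.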

Experiment [2] has as its target human RAR-related Orphan Receptor gamma (RORg), RORC (gene 6097) (UniProt P51449). Nature of the experiment: ATG_RORg_TRANS: Attagene TRANS-FACTORIAL HepG2 Assay for human RAR-related Orphan Receptor gamma (RORg) (AID 2283011). A digest of the protocol: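 Transient MRTU transfection of HepG2 (TRANS format, exogenous NR-Gal4 chimera). 24 h dosing. Total RNA → oligo(dT) RT → PCR → 6-FAM labelling → HpaI cut → CE. Gain vs DMSO.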

Read-out in experiment [3]: Vascular endothelial growth factor receptor 2 (Homo sapiens) (UniProt P35968)
Put plainly: BSK_4H_VEGFRII: BioMAP Diversity Plus: 4H Assay for Vascular endothelial growth factor receptor 2 (VEGFR2) Biomarker Activity (AID 2283031; active = hit-call score of the fitted dose curve at least 0.9, where 1 is the maximum; inactive = score below 0.9;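 note: cell-surface VEGFR2 protein level quantified by ELISA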). Particulars: actives raise or lower the signal; primary human endothelial cells (HUVEC). A digest of the protocol: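 HUVEC (human primary), 4H system; 24 h post-dose; VEGFRII by ELISA; bidirectional curve fit vs DMSO baseline; gain or loss of signal scored.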

The nature of experiment [4]: TOX21_p53_BLA_p2_viability: Viability Assessment in the Tox21 HCT-116 p53 Agonism Beta-lactamase Assay, Phase 2 (AID 2283591).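 Note: compound exposure lasted 16 h at 37 °C; actives lower the ATP signal meaning cytotoxicity.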 The method, boiled down: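 HCT-116 p53-bla cells (4000/well) rested 5 h at 37C, then received compounds in DMSO (217-fold dilution) for 16 h at 37C, 5% CO2. After the CCF4 read, CellTiter-Glo was added; ATP luminescence was read after 30 min at room temperature.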

For experiment [5], the target named is Cellular tumor antigen p53 (Homo sapiens) (UniProt P04637). Put plainly: TOX21_p53_BLA_p4_ratio: Tox21 HCT-116 p53 Agonism Beta-lactamase Assay, Ratio, Phase 4 (AID 2283601). The method, boiled down: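 HCT116 cells carrying an inducible beta-lactamase reporter were plated at 4000 cells/well, rested 5 h, then exposed to compounds in DMSO (217-fold dilution) for 16 h at 37C. CCF4-AM substrate was loaded 2 h at room temperature; 460/530 nm emission ratio scored gain-of-signal versus DMSO.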

The target in experiment [6] is Nuclear receptor subfamily 1 group I member 2 (Homo sapiens) (UniProt O75469). Nature of the experiment: ATG_PXR_TRANS: Attagene TRANS-FACTORIAL HepG2 Assay for human Pregnane X Receptor (PXR) (AID 2283008). The method, boiled down:
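Transactivation by exogenous PXR–GAL4 fusion measured as reporter transcript induction after 24 h compound treatment of transfected human HepG2 cells. Read-out via RT-PCR and capillary electrophoresis of labelled fragments, fitted upward relative to DMSO.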

For experiment [7], the target named is Peroxisome proliferator-activated receptor gamma (Homo sapiens) (UniProt P37231). Put plainly: ATG_PPARg_TRANS: Attagene TRANS-FACTORIAL HepG2 Assay for human Peroxisome Proliferator-activated Receptor-gamma (PPARg) (AID 2283007). The method, boiled down: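 Chimeric NR-Gal4 transactivation is measured in transiently transfected HepG2 cells by reporter mRNA induction at 24 h. Detection uses RT-PCR with fluorescent labelling and capillary electrophoresis; DMSO defines baseline.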

The target is the same in experiment [8]. Nature of the experiment: OT_PPARg_PPARgSRC1_0480: Odyssey Thera (OT) 8-hour Protein-Complementation Assay for Peroxisome Proliferator-activated Receptor Gamma / SRC-1 Co-activator (AID 2283387).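 Note: nuclear to cytoplasmic split Venus YFP fluorescence ratio reporting PPARg SRC-1 interaction.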 The method, boiled down:
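Protein-fragment complementation of split Venus YFP reports PPARg/SRC-1 interaction in HEK293T (transfected 48 h before treatment), exposed 8 h. Readout: N/C fluorescence ratio at 488 nm from imaging, Draq5 for segmentation, positive fit relative to DMSO.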

Experiment [9] has the same target. Put plainly: OT_PPARg_PPARgSRC1_1440: Odyssey Thera (OT) 24-hour Protein-Complementation Assay for Peroxisome Proliferator-activated Receptor Gamma/ SRC-1 Co-activator (AID 2283388).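 Note: nuclear to cytoplasmic ratio of reconstituted Venus YFP fluorescence in fixed imaged cells.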 The method, boiled down: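 Readout: nuclear-to-cytoplasmic 488 nm fluorescence ratio, ≥350 cells per image, 8 images per well, after 24 h compound exposure of HEK293T expressing PPARg/SRC-1 split-YFP fusions. Activity fitted in positive direction against DMSO.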

Read-out in experiment [10]: Broad substrate specificity ATP-binding cassette transporter ABCG2 (Homo sapiens) (UniProt Q9UNQ0)
Put plainly: LTEA_HepaRG_ABCG2: Life Technologies and Expression Analysis (LTEA) Assay for ABC Transporter (ABCG2) using HepaRG (AID 2283465; active = hit-call score of the fitted dose curve at least 0.9, where 1 is the maximum; inactive = score below 0.9). Particulars: actives raise or lower the signal; mRNA level, 48 h. A digest of the protocol: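 Gene expression of ABCG2 in HepaRG liver cells is quantified by qRT-PCR following 48 h exposure across an eight-point series topping at 100 uM. Values come from bidirectional fitting relative to DMSO vehicle.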

Read-out in a further experiment: CYP2C9 (gene 1559)
Nature of the experiment: LTEA_HepaRG_CYP2C9: Life Technologies and Expression Analysis (LTEA) Assay for CYP2C9 using HepaRG (AID 2283484; active = hit-call score of the fitted dose curve at least 0.9, where 1 is the maximum; inactive = score below 0.9). Particulars: actives raise or lower the signal; mRNA level, 48 h. A digest of the protocol:
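Eight-point concentration-response (highest 100 uM, half-log dilutions) in HepaRG cells for 48 h; CYP2C9 expression by qRT-PCR normalized to ACTB, GAPDH, POLR2A. Bidirectional fit, DMSO baseline.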

The target in experiment [11] is Cellular tumor antigen p53 (Homo sapiens) (UniProt P04637). Put plainly: TOX21_p53_BLA_p3_ratio: Tox21 HCT-116 p53 Agonism Beta-lactamase Assay, Ratio, Phase 3 (AID 2283596). A digest of the protocol: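 Cells were seeded at 4000/well, rested 5 h at 37C, then dosed with DMSO compound solutions (217-fold dilution) for 16 h. CCF4-AM substrate was loaded for 2 h at room temperature, and the 460/530 nm emission ratio was fitted for gain of signal versus DMSO.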

Experiment [12] is described as follows: BSK_3C_Proliferation: Cell Proliferation Assessment in the BioMAP Diversity Plus: 3C Assay (AID 2283006; active = hit-call score of the fitted dose curve at least 0.9, where 1 is the maximum; inactive = score below 0.9). Particulars: primary human endothelial cells (HUVEC). The method, boiled down:
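Proliferation as total protein: sulforhodamine B (0.1%) stain of TCA-fixed subconfluent human umbilical vein endothelial cells, absorbance 560 nm, 48 h after dosing. Activity fitted in both directions against DMSO baseline.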

Experiment [13] concerns the target guinea pig Opioid, Kappa 1 Receptor (OpiateK), OPRK1 (gene 100135587) (UniProt P41144). Put plainly: NVS_GPCR_gOpiateK: NovaScreen (NVS) G Protein-Coupled Receptor Assay for guinea pig Opioid, Kappa 1 Receptor (OpiateK) (AID 2283252).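 Note: radioligand displacement from kappa opioid receptor in guinea pig cerebellar membranes; active means reduced radioligand binding relative to DMSO.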 The method, boiled down:
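Radioligand competition binding using guinea pig cerebellum membrane fraction; 2 h exposure; filter radiodetection. Single concentration 25 uM (duplicate), follow-up concentration-response for actives.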

A short description of experiment [14]: ACEA_AR_agonist_AUC_viability: ACEA Biosciences xCELLigence Real-Time Cell Analysis on Androgen Receptor Agonism for Viability (AID 2283775). A digest of the protocol: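 22Rv1 cells; impedance growth kinetics; 8-pt 1:4 dilutions from 100 uM top final, ≤0.5% DMSO; n = 2; 80 h read; AUC viability, loss-of-signal vs DMSO.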
Experiment [15] in a line: ACEA_AR_antagonist_AUC_viability: ACEA Biosciences xCELLigence Real-Time Cell Analysis on Androgen Receptor Antagonism for Viability (AID 2283776).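 Note: 22Rv1 human prostate cancer cells growing on impedance electrode plates; area under impedance growth curve at 80 h after dosing as viability; hits lower the growth signal relative to DMSO meaning cytotoxicity.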 A digest of the protocol:
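Impedance read-out (RT-CES): area under growth curve at 80 h post-dose, loss of signal scored vs DMSO baseline. 22Rv1 cells; 8-pt 1:4 series, top 100 uM final, ≤0.5% DMSO; biological duplicate.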

One may read the AC50 as the concentration at which the activity in the assay is half-maximal.

`CCCCCCCCCCCCCCCC[N+](C)(C)CC`: the call in [1] and in experiment [2] was inactive. In addition, the AC50 in experiment [3] is active: 33.5 µM; in experiment [4] it was active: 34.8 µM; in experiment [5], active: 33.9 µM.

In the case of `Cc1oncc1C(=O)Nc1ccc(C(F)(F)F)cc1`, the outcome in [6] was inactive.

Take `c1ccc(Nc2ccccc2)cc1`: the call (in experiment [7]; in [8]; in experiment [9]; in experiment [10]; in the experiment with CYP2C9 (gene 1559); in [11]) was inactive.

`CC[N+](CC)(CC(=O)Nc1c(C)cccc1C)Cc1ccccc1`: the outcome in experiment [12], in experiment [14] and in experiment [15] was inactive. In addition, the AC50 in experiment [13] was active: 10.7 µM.

Turning to `Cc1ccc2sc3cccc(C)c3c2c1`, in experiment [6], the result was inactive.
